According to publication PMC8121856:
These are yes or no findings as the source states them, for the method shown. Binding seen in cells or lysates may run through a third protein. Some entries that bind do so weakly or less than the wild type. Where a sequence is shown, tags or fusion partners need not be part of it.

Target: T1, Flag-tagged Shc1 (UniProt P29353)
T1 sequence: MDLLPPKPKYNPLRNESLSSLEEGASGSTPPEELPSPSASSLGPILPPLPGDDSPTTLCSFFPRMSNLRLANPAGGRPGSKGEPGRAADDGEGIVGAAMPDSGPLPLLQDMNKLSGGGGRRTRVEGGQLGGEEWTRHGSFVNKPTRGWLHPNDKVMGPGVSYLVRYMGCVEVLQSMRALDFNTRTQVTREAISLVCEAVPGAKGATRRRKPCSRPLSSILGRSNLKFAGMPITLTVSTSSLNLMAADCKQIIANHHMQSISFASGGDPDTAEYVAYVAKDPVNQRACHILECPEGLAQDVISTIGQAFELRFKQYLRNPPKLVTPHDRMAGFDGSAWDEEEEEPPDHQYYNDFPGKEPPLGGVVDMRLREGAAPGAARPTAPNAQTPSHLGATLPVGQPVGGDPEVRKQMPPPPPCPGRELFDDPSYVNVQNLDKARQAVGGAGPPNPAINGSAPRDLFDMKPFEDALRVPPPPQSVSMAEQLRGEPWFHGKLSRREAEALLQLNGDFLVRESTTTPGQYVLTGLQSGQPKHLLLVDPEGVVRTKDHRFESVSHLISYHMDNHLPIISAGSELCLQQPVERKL
Assay: co-IP; Flag-Shc1 with HA-SHCBP1 in SNU-216 cells; anti-Flag M2 agarose, 4 °C; 50 mM Tris-HCl pH 7.4, 150 mM NaCl, 1 mM EDTA, 0.2% TritonX-100; cells treated with 100 ng/mL EGF for the indicated times and/or trastuzumab

B1: HA-tagged SHCBP1 (protein, UniProt Q8NEM2 1-672)
chain: MADGSLTGGGLEAAAMAPERMGWAVEQELASLEKGLFQDEDSCSDCSYRDKPGSSLQSFMPEGKTFFPEIFQTNQLLFYERFRAYQDYILADCKASEVQEFTAEFLEKVLEPSGWRAVWHTNVFKVLVEITDVDFAALKAVVRLAEPYLCDSQVSTFTMECMKELLDLKEHRLPLQELWVVFDDSGVFDQTALAIEHVRFFYQNIWRSWDEEEEDEYDYFVRCVEPRLRLHYDILEDRVPSGLIVDYHNLLSQCEESYRKFLNLRSSLSNCNSDSEQENISMVEGLKLYSEMEQLKQKLKLIENPLLRYVFGYQKNSNIQAKGVRSSGQKITHVVSSTMMAGLLRSLLTDRLCQEPGEEEREIQFHSDPLSAINACFEGDTVIVCPGHYVVHGTFSIADSIELEGYGLPDDIVIEKRGKGDTFVDCTGADIKISGIKFVQHDAVEGILIVHRGKTTLENCVLQCETTGVTVRTSAEFLMKNSDLYGAKGAGIEIYPGSQCTLSDNGIHHCKEGILIKDFLDEHYDIPKISMVNNIIHNNEGYGVVLVKPTIFSDLQENAEDGTEENKALKIQTSGEPDVAERVDLEELIECATGKMELCARTDPSEQVEGNCEIVNELIAASTQKGQIKKKRLSELGITQADDNLMSQEMFVGIVGNQFKWNGKGSFGTFLF
With B1 the binding was “binds”.
